Among all 310,000 compounds or so, about 11,000 (3.5%) were called active. Inconclusive means that the source gave no clear call. Such entries were picked first, then a sample of the others. Calls come from the whole dose curve; as a rule, active = well fitted inhibition curve with a large enough effect; inconclusive = small, poorly fitted or top-dose-only effect, or effect the other way; inactive = flat fitted curve, though single readings scatter. Potencies of inconclusive entries are left out as doubtful fits.
assay: VP16 counterscreen qHTS for inhibitors of ROR gamma transcriptional activity; settings: Drosophila S2 Gal4-VP16 UAS-luciferase, luminescence, 20 h; series mostly up to 53.6 µM;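 note: Gal4-VP16 expression switched on by copper sulfate through the metallothionein promoter; nearly all actives have a fitted effect of over 50% in size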
Potency is the fitted concentration of half-maximal effect; tags give direction and shape of the fitted curve.

SMILES	Potency
CC1(C)CC2CC(C)(CN2S(=O)(=O)c2ccc(C(=O)Nc3ccc(S(=O)(=O)N4CCOCC4)cc3)cc2)C1 (stereo unspecified)	inconclusive [inhibitor, partial curve, poor fit]
O=S(=O)(c1ccc(Oc2ccc(Br)cc2)cc1)N1CCOCC1	inconclusive [inhibitor, single point]
C1CCCNCC1	inactive
Cc1ccccc1NC(=S)NCc1ccc2c(c1)cc(C)n2C	active: 11.2 µM
COCCCNC(=S)Nc1ccc(N2CCCCC2)cc1	inconclusive [inhibitor, single point]
COc1ccc(-c2nnc(OCc3nc4ccccc4n3C)c3ccccc23)cc1	inconclusive [inhibitor, single point]
COc1cccc(N=Cc2nc(-c3ccccc3)oc2OC(C)=O)c1	inconclusive [activator, partial curve, poor fit]
COc1ccc(CC(=O)N/N=C/c2sccc2C)cc1	inconclusive [activator, single point]
Cc1nc(-c2ccccc2)sc1C(=O)Nc1ccccc1F	inconclusive [activator, partial curve]
Cc1ccc(C)c2[nH]c(=O)c(CN(CC3CCCO3)C(=O)NC3CCCCC3)cc12 (stereo unspecified)	inactive
O=C(/C=C/Nc1ccccc1F)c1cccs1	inconclusive [inhibitor, single point]
COc1cc(/C=C2/C(=N)N3C=CSC3=NC2=O)ccc1OCCCOc1ccccc1C	active: 2.82 µM
CCOc1ccc(NC(=O)Cn2cncc2-c2ccc([N+](=O)[O-])cc2)cc1	inconclusive [inhibitor, single point]
COc1ccc(-c2ccc(/C=C3/C(=N)N4C=CSC4=NC3=O)o2)c([N+](=O)[O-])c1	active: 3.55 µM
CC1CCC(C(C)C)C(OC(=O)COC(=O)c2cc(O)ccc2N)C1 (stereo unspecified)	inconclusive [inhibitor, partial curve]
COc1cc2nc(SCc3ccc(C(F)(F)F)cc3)n(Cc3cccs3)c(=N)c2cc1OC	inconclusive [inhibitor, partial curve]
COc1ccc(/C=N/Nc2nc(C(=O)O)cs2)cc1	active: 5.01 µM
O=C(Nc1cccc(F)c1)c1ccc(-c2ccccc2Cl)o1	inconclusive [inhibitor, single point]
Cc1onc(-c2c(F)cccc2Cl)c1C(=O)NCCN1CCNC1=O	inconclusive [inhibitor, single point]
COc1cc2c(cc1OC)C(c1ccc(-c3ccccc3Cl)o1)=NCC2	active: 11.2 µM
CCOC(=O)C1=C(C)NC(C)=C(C(=O)OCC)C1c1sccc1C	inactive
CC/C(=N\NC(=O)c1cc(C2CC2)[nH]n1)c1ccccc1	inconclusive [inhibitor, single point]
C/C(CCc1ccc2c(c1)OCO2)=N\N=C(/N)SC1CC(=O)N(c2ccccc2F)C1=O (stereo unspecified)	inconclusive [inhibitor, single point]
Cc1cccc2c(CCNC(=O)c3ccc([N+](=O)[O-])cc3)c[nH]c12	inconclusive [activator, single point]

SMILES	Potency
O=S(=O)(Nc1cc(O)cc2cccnc12)c1ccc(Br)s1	active: 6.31 µM
COC(=O)c1ccc(COC(=O)c2ccc(N(C)C)cc2)cc1	inconclusive [inhibitor, single point]
Cc1ccccc1N=Nc1ccc(O)c2ncccc12	active: 0.891 µM
COc1ccccc1C1=NN(C(=O)c2ccccc2)C(c2ccc(Br)cc2)C1 (stereo unspecified)	inconclusive [inhibitor, partial curve, poor fit]
COc1ccc(Nc2nc(C)c(-c3ccccc3)s2)cc1	inconclusive [inhibitor, single point]
Cc1sc2c(c1C)C(O)=C(C(=O)Nc1ccccc1)S(=O)(=O)N2C	inconclusive [inhibitor, single point]
COC(=O)C1=C(C(=O)OC)[C@@H]2N(Cc3ccccc3)c3ccccc3[C@@]23C[C@@H](C(=O)OC)N(C(=O)COCc2ccccc2)C3=N1	inconclusive [inhibitor, single point]
Clc1ccc(/C=N/NC(=Nc2ccccc2)c2ccccn2)c(Cl)c1	inconclusive [inhibitor, single point]
CC1CCN(C(=O)c2[nH]cnc2C(=O)N[C@@H](Cc2ccccc2)C(=O)OC(C)(C)C)CC1	active: 20 µM
O=C1C(=O)N(c2ccc(O)cc2)C(c2ccccc2[N+](=O)[O-])/C1=C(\O)c1ccccc1 (stereo unspecified)	inactive
COc1cccc(-n2c(SCc3cc(=O)oc4cc(O)c(O)cc34)nc3ccccc3c2=O)c1	inactive
CCOc1cc(/C=C(/C#N)c2ccc(Cl)cc2)cc(Cl)c1OCC(=O)O	active: 0.794 µM
CC(C)(C)c1ccc(-n2nc(C#N)c(Cl)cc2=O)cc1	active: 7.08 µM
N#CCCn1cc(/C=N/O)c(-c2ccc(Cl)cc2)n1	inconclusive [inhibitor, full curve, poor fit]
Cc1cc(CC(C)C)n(-c2nc3ccccc3c(=O)n2OCC(=O)N(C)C)n1	active: 6.31 µM
Cc1ccc(-n2cc(CN3CCC(CO)(Cc4cccc(C(F)(F)F)c4)CC3)cn2)cc1	inconclusive [inhibitor, single point]
N#C/C(=C\c1ccc([N+](=O)[O-])o1)C(=O)Nc1ccc(F)cc1	inconclusive [inhibitor, single point]
CC(=O)C(C)n1c(CN(C)Cc2ccccc2)nc2c1c(=O)n(C)c(=O)n2C (stereo unspecified)	inconclusive [inhibitor, single point]
CCOc1ccc(CSCCNC(=S)Nc2ccccc2)cc1	active: 4.47 µM
Cc1ccc(NC(=S)N(CCCN2CCOCC2)Cc2ccccn2)cc1Cl	inconclusive [inhibitor, single point]
CCCCC(=O)Nc1ccc(C(=O)NCCc2ccccc2)cc1	inconclusive [activator, single point]
FC(F)(F)c1cc(CCN2C(=S)NC[C@@H]2c2ccccc2)cc(C(F)(F)F)c1	active: 11.2 µM
O=C(Nc1nccs1)c1cc(S(=O)(=O)N2CCOCC2)c(Cl)cc1Cl	inconclusive [inhibitor, single point]
Cc1ccc(-c2csc3nc(CN(C)Cc4ccccc4)[nH]c(=O)c23)cc1	active: 6.31 µM

SMILES	Potency
CCN(Cc1nc2ccccc2c(=O)[nH]1)Cc1cc(=O)oc2cc(OC)ccc12	active: 15.8 µM
Cc1cc(C)c2nc(NNC(=O)c3ccc(S(=O)(=O)N4CCCC(C)C4)cc3)sc2c1 (stereo unspecified)	active: 5.01 µM
Cc1ccc(C(=O)NCCSc2ccc(Cl)cc2)cc1S(=O)(=O)Nc1ccccc1	inconclusive [inhibitor, single point]
S=C(NCC1CCCO1)Nc1ccc(Cl)c(Cl)c1 (stereo unspecified)	inconclusive [inhibitor, single point]
CCCN1C2CCCC1CC(NC(=O)c1ccc(C(C)(C)C)cc1)C2 (stereo unspecified)	inactive
CC(C)(C)c1cc(CN2CCC(O)CC2)cc(C(C)(C)C)c1O	inconclusive [inhibitor, partial curve, poor fit]
CCSc1nnc(NC(=O)C2CCN(S(=O)(=O)c3cc(C(F)(F)F)ccc3Cl)CC2)s1	inconclusive [activator, single point]
CC(=O)OC(/C(O)=C(\C#N)c1nc2ccccc2[nH]1)c1ccccc1 (stereo unspecified)	inconclusive [inhibitor, single point]
CC(=O)Nc1ccc(Nc2ccc(S(=O)(=O)C(F)(F)F)cc2[N+](=O)[O-])cc1	inconclusive [inhibitor, partial curve]
CCOC(=O)c1ccc(NC(=O)Nc2ccccn2)cc1	inconclusive [activator, full curve]
S=C(NCc1ccco1)Nc1ccc(N2CCOCC2)cc1	inactive
COc1ccc(Cl)cc1NC(=S)NNC(=O)c1cccnc1	inactive
Cc1[nH]c2ccccc2c1/C=N/NC(=S)NC(C)C	active: 7.08 µM
CSc1ncc(C(=O)Nc2cccc(Cl)c2)c(C)n1	inactive
CCOC(=O)/C=C(\C)Nc1cc(C)nn1-c1ccccc1	inconclusive [inhibitor, single point]
COc1ccc2[nH]c(=O)c(CN(CC3CCCO3)C(=S)Nc3ccccc3)cc2c1 (stereo unspecified)	inactive
O=C(NC(=S)N1CCN(Cc2ccccc2)CC1)c1ccccc1	active: 3.55 µM
c1cn2cc(CSC3CCCCC3)nc2s1	inconclusive [inhibitor, single point]
Cc1oc2c(c1C(=O)NCc1cccnc1)C(=O)c1ccccc1C2=O	active: 4.47 µM
C=CCOC(=O)C1=C(C)NC(=S)NC1/C=C/c1ccccc1 (stereo unspecified)	active: 6.31 µM
COc1ccc(NC(=O)Cn2c3ccccc3c3nc4n(c(=O)c32)CCS4)cc1OC	inconclusive [inhibitor, single point]
COc1ccc(C[C@H]2CN3C(=NC[C@@H]3Cc3ccc(O)cc3)N2C[C@H](C)NC(=O)c2ccc(C)c(Br)c2)cc1	inactive
COC(=O)c1cc(C)sc1NC(=O)CN1CCN(C(=O)C2CCCO2)CC1 (stereo unspecified)	inconclusive [inhibitor, partial curve]

From PubChem BioAssay AID2546 (National Center for Advancing Translational Sciences (NCATS), 2010)
